Measured values as given in a compilation of properties of binary mixtures (doi:10.1007/s10953-009-9494-0).
Some of these densities may be calculated back from excess volumes.

Test: xn = mol fraction of the nth substance listed
Conditions: 101 kPa

Question: For `Nc1ccccc1` + CCCC[n+]1ccn(C)c1.F[B-](F)(F)F, which mass density (298.15 K, x1 = 0.1011) is on record?
Answer: 1200.6 kg/m3

Question: What about the mass density (298.15 K, x1 = 0.4004) of the same molecule?
Answer: 1167.1 kg/m3

Question: And the mass density (298.15 K, x1 = 0.5004)?
Answer: 1153.1 kg/m3

Question: What about the mass density (298.15 K, x1 = 0.6) of the same molecule?
Answer: 1136.3 kg/m3

Question: And the mass density (298.15 K, x1 = 0.6999)?
Answer: 1115.7 kg/m3

Question: What about the mass density (298.15 K, x1 = 0.8001) of the same molecule?
Answer: 1090.1 kg/m3

Question: And the mass density (298.15 K, x1 = 0.8995)?
Answer: 1058 kg/m3

Question: And the mass density (303.15 K, x1 = 0.1011)?
Answer: 1188.7 kg/m3

Question: What about the mass density (303.15 K, x1 = 0.2003) of the same molecule?
Answer: 1179.3 kg/m3

Question: What about the mass density (303.15 K, x1 = 0.3) of the same molecule?
Answer: 1168.8 kg/m3

Question: What about the mass density (303.15 K, x1 = 0.5004) of the same molecule?
Answer: 1143.9 kg/m3

Question: What about the mass density (303.15 K, x1 = 0.6) of the same molecule?
Answer: 1128.2 kg/m3

Question: What about the mass density (303.15 K, x1 = 0.6999) of the same molecule?
Answer: 1108.7 kg/m3

Question: And the mass density (303.15 K, x1 = 0.8001)?
Answer: 1084.1 kg/m3

Question: And the mass density (303.15 K, x1 = 0.8995)?
Answer: 1053.1 kg/m3

Question: What about the mass density (308.15 K, x1 = 0.1011) of the same molecule?
Answer: 1186.8 kg/m3

Question: And the mass density (308.15 K, x1 = 0.2003)?
Answer: 1177.4 kg/m3

Question: What about the mass density (308.15 K, x1 = 0.5004) of the same molecule?
Answer: 1141.4 kg/m3

Question: What about the mass density (308.15 K, x1 = 0.6) of the same molecule?
Answer: 1125.4 kg/m3

Question: What about the mass density (308.15 K, x1 = 0.6999) of the same molecule?
Answer: 1105.9 kg/m3

Question: What about the mass density (308.15 K, x1 = 0.8001) of the same molecule?
Answer: 1081 kg/m3

Question: What about the mass density (308.15 K, x1 = 0.8995) of the same molecule?
Answer: 1049.7 kg/m3

Question: What about the mass density (313.15 K, x1 = 0.2003) of the same molecule?
Answer: 1173.5 kg/m3

Question: And the mass density (313.15 K, x1 = 0.4004)?
Answer: 1151 kg/m3

Question: And the mass density (313.15 K, x1 = 0.5004)?
Answer: 1137.5 kg/m3

Question: What about the mass density (313.15 K, x1 = 0.6999) of the same molecule?
Answer: 1101.7 kg/m3

Question: What about the mass density (313.15 K, x1 = 0.8001) of the same molecule?
Answer: 1076.6 kg/m3
